# The campaign covered roughly 310,000 compounds. About 2,200 (0.71%) showed an effect of 50% or more. The effect is printed as a negative number. This is one part of the list.
# Target: human ether-à-go-go-related gene (hERG) potassium channel (human, UniProt Q12809)
# Experiment: primary screen, population patch clamp on CHO cells stably expressing hERG
# human ether-à-go-go-related gene (hERG) potassium channel, sequence (Q12809 whole entry, looked up): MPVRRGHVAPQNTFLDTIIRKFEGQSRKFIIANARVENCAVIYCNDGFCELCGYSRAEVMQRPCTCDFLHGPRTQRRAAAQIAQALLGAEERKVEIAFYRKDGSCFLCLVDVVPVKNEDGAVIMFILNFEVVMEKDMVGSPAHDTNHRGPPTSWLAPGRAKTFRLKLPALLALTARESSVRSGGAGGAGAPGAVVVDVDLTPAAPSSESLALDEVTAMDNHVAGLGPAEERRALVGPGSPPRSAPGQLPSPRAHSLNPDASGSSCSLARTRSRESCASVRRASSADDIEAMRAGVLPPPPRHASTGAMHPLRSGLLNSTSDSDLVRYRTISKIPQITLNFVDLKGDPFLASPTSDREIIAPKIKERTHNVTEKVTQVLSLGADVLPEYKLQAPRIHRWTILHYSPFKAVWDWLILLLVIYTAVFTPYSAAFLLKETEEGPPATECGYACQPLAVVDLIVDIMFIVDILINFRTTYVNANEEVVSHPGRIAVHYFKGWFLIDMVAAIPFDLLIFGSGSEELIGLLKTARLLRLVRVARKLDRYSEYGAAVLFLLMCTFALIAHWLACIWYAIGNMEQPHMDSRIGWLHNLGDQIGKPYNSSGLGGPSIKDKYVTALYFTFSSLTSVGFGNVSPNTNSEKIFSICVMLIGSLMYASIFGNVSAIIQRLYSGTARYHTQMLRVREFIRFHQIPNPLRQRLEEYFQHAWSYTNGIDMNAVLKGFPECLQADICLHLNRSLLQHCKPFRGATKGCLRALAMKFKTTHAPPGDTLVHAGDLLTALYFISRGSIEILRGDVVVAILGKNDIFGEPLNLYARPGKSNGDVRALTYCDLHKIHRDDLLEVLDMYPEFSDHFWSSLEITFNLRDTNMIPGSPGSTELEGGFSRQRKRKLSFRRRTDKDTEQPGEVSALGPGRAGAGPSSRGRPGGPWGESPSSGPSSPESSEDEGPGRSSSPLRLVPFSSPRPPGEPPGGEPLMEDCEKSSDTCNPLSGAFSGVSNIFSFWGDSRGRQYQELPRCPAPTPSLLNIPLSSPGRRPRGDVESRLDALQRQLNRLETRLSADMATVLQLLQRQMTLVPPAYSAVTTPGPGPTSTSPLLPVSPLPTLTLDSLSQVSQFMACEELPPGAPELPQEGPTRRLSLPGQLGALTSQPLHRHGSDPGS
row,SMILES,"hERG current change (%, negative = inhibition) at 1uM [%]"
1,CCc1ccccc1NC(=O)CN(C)Cc1nc(N)nc(Nc2ccccc2C)n1,-0.11
2,CCn1c(C)cc(/C=C2\NC(=O)N(CC(=O)Nc3cccc(C)c3)C2=O)c1C,-2.56
3,Cc1nc2ccccc2c(=O)n1NCc1cccs1,13.1
4,CSc1ccccc1OCc1cc(C(=O)N(C)Cc2ccc3nsnc3c2)no1,6.87
5,COc1cc(CNC(=O)CCCC/C=C/C(C)C)ccc1O,11.8
6,COc1ccccc1NC(=O)C(C)OC(=O)CCC1CCCCC1 (stereo not drawn),0.267
7,CCOC(=O)C1C(c2cccs2)NC(=O)N(C)C1(O)C(F)(F)F (stereo not drawn),12.1
8,Cc1ccc(NC(=S)NCc2ccccc2Cl)c(C)c1,5.27
9,COc1ccc(C(=O)Nc2cccc(-c3nc4ncccc4o3)c2C)cc1OC,8.23
10,Cc1ccc(NC(=S)NCC23C=CC(O2)C2C(=O)N(c4ccc(C)cc4)C(=O)C23)cc1 (stereo not drawn),-2.13
11,O=C(c1cn(-c2ccccc2)nc1-c1cc2ccccc2oc1=O)N1CCOCC1,0.492
12,COc1cc(OC)cc(C(=O)NCCc2ccc(OC)c(OC)c2)c1,6.86
13,CC(=O)NS(=O)(=O)c1ccc(NC(=O)c2ccccn2)cc1,10.4
14,CCOc1ccccc1-n1nnnc1SCC(=O)Nc1cc2oc3ccccc3c2cc1OC,9.01
15,O=C1c2ccccc2C(Nc2ccc3c(c2)OCCO3)N1Cc1ccco1 (stereo not drawn),2.68
16,COc1ccc(N(C)C(=O)C2CCCN2S(=O)(=O)c2cccc3nsnc23)cc1 (stereo not drawn),10.7
17,N#C/C(=C\c1ccccn1)c1ccccn1,12
18,O=C(Cn1cnc2c(cnn2-c2ccc(Cl)cc2)c1=O)NC1CCCCC1,21.3
19,O=C(COC(=O)Cn1cnc2ccccc2c1=O)Nc1cc(Cl)ccc1[N+](=O)[O-],12.9
20,CC1CCCCC1NC(=O)CN1CCC(NC(=O)c2ccc([N+](=O)[O-])cc2)CC1 (stereo not drawn),12.1
21,CCC12CN(C(=O)c3ccco3)CC(CC)(CN(C(=O)c3ccco3)C1)C2=O,16.7
22,COc1ccc(Cl)cc1S(=O)(=O)N1CCN(Cc2ccc3c(c2)OCO3)CC1,1.84
23,CC(C)c1ccc(OCC(=O)NC2=NCCS2)cc1,6.99
24,O=C(COc1ccccc1[N+](=O)[O-])Nc1cc(Cl)ccc1C(=O)O,7.98

# Source: PMC4336329 (PLoS ONE, 2015)
